In paper PMC6919601, “Identification of Plasmodium dipeptidyl aminopeptidase allosteric inhibitors by high throughput screening” (PLoS ONE, 2019):
Several values for one entry are separate records, joined by “and”; a condition that tells them apart may be missing. Equal entries are not always repeated. In all, about 110,000 compounds went through this assay and about 230 (0.21%) showed an effect of 50% or more. Some of the results follow.

Molecular target: DPAP1 (Plasmodium falciparum, UniProt Q8IIJ9)
Sequence (Q8IIJ9 whole entry, looked up): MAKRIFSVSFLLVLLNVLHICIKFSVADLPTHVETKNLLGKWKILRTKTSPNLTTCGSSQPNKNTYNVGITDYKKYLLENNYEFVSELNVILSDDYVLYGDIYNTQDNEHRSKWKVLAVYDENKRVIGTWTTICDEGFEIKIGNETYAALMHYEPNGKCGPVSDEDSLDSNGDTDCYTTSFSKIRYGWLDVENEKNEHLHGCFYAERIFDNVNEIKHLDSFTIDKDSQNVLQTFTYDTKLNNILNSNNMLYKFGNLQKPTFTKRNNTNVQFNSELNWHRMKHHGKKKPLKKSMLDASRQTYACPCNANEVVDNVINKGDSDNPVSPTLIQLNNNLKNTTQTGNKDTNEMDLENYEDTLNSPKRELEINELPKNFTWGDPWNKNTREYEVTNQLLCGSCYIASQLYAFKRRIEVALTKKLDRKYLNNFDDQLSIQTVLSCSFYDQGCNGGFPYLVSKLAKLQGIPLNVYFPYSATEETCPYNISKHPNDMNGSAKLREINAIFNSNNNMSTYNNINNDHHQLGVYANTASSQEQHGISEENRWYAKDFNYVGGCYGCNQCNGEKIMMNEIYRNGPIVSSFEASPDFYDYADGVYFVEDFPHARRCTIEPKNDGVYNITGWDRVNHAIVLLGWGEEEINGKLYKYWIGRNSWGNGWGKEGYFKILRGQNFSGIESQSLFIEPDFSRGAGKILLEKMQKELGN
Test: primary screen, percent inhibition; read by cleavage of a fluorogenic dipeptide substrate; higher = more effect of the substance
Set-up: species or system P. falciparum D10 trophozoite lysates; single well
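Also: 30 min substrate incubation versus DMSO and 10 µM JCP410 controls.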

SMILES	% Inhibition @ 10 uM
COc1ccc(OCC(=O)Nc2ccc(S(=O)(=O)Nc3cc(C)cc(C)c3)cc2)cc1	10.5%
COc1ccc(C2C(C(=O)N3CCN(C)CC3)c3cc(OC)c(OC)cc3C(=O)N2C)cc1 (centres unmarked)	-2.15%
O=C(O)c1ccccc1-c1ccccc1C(=O)N1CCN(C(c2ccccc2)c2ccccc2)CC1	-3.27%
COc1ccccc1C(=O)NCc1ccccc1	4.83%
O=C(c1ccc(Cl)cc1)n1nc(-c2ccccc2)oc1=O	4.88%
COc1ccc(C)cc1-n1nnc(-c2nc(-c3ccncc3)no2)c1N	4.48%
ClC1=CCC2CN(CCN3CCCC3)CC2C1 (centres unmarked)	0.51%
CC(=O)C1=C(C)NC(=O)NC1c1ccccc1OCc1ccccc1 (centres unmarked)	-7.34%
O=C(NCc1ccc(F)cc1)c1nnc(-c2ccccc2)o1	-3.9%
COc1ccc2nc(NC(=O)CSc3nc4cc(Cl)ccc4s3)sc2c1	4.54%
CCOC(=O)C1CC(=O)OC12CCCCC2 (centres unmarked)	-2.55%
COc1ccccc1-n1nnnc1SCC(=O)NC1CCCC1	4.32%
CCc1nn(Cc2ccccc2)c(=O)c2cc3cc(C)ccc3n12	3%
Cc1cc2ncn(S(=O)(=O)c3ccc(Cl)cc3)c2cc1C	-0.28%
CN1CCN(CCCNC(=O)C2CCCN(S(=O)(=O)N3CCC4(CC3)OCCO4)C2)CC1 (centres unmarked)	-1.67%
COc1cc2c(no[n+]2[O-])n2nnnc12	2.24%
COc1cc(-c2nc(C(N)=O)c3nc(O)n(-c4cccc(C)c4)c3n2)cc(Br)c1O	0.953%
O=C(COc1ccc(Cl)cc1)N1CCN(c2ccccn2)CC1	-0.996%
Cc1ccccc1-c1nnc(NC(=O)C23CC4CC(CC(C4)C2)C3)s1	2.7%
CC/N=C1\S/C(=C\c2cn(C(=O)CC)nc2-c2ccc(F)cc2)C(=O)N1CC	2.18%
COc1cc(CNCCc2ccccc2OC)cc(OC)c1	0.291%
COc1ccccc1CN1C(=O)CN(C2CCCCC2)C(=O)C1c1ccc(Cl)cc1 (centres unmarked)	2.9%
Cc1ccc(-c2csc(Nc3ccc(Cl)cc3)n2)cc1C	-3.14%
CCOC(=O)c1sc(-c2ccccc2)nc1O	66.9%
CN(C)CCCNc1oc(-c2cccs2)nc1S(=O)(=O)c1ccc(Cl)cc1	-3.18%
O=c1c2sccc2nc(SCc2cc(=O)n3ccccc3n2)n1Cc1ccccn1	2.07%

SMILES	% Inhibition @ 10 uM
O=C(c1ccc(Cl)cc1)N(C(=O)c1ccc(Cl)cc1)n1cnnc1	-0.597%
CCCc1ccc(OCC(=O)Nc2ccc(C)cc2)cc1	-2.62%
NC1=C(c2nc3ccccc3s2)C(=O)CN1CCCN1CCOCC1	-1.64%
CCn1c(C)c(C)c2cc(C(=O)N3CCSCC3)ccc21	4.01% and -2.74%
Oc1oc(-c2cccc3ccccc23)nc1/C=N/c1cccnc1	1.45%
CC1(C)Cc2c(oc(N)c2C#N)CS1	2.51%
CC(C)Cn1c(=N)c(C#N)cc2c(=O)n3ccccc3nc21	-2.64%
CCCn1c(=O)c2sccc2n2c(CCCC(=O)N3CCc4ccccc4C3)nnc12	-2.44%
O=C(NCc1ccco1)c1ccc2c(c1)ncn2-c1ccc(F)cc1F	7.3%
CCO/C(O)=C1\C(C)=NC2=C(C(=O)CCC2)C1c1ccsc1 (centres unmarked)	-3.5%
Cc1onc(-c2ccccc2)c1C(=O)NCc1ccco1	-0.00273%
Cc1[nH]c2c(cc(C)c3nc(O)cc(C(F)(F)F)c32)c1C	2.18%
CCN(CC)C(=O)Cn1cc(SCC(=O)N2CCOCC2)c2ccccc21	2.99%
COc1ccc(N2CCN(C(=O)c3ccc(OC4CCCC4)cc3)CC2)cc1	-2.09%
CN1CCN(C(=O)Cn2ncc3c2-c2ccccc2OC3)CC1	-7.18%
Cc1c(CN(C)Cc2cccc3ccccc23)c(=O)n(-c2ccccc2)n1C	-4.95%
CC(C)(C)C1CCC(OC(=O)CCC(=O)N2CCCCC2)CC1 (centres unmarked)	-1.76%
COc1cc(/C=C2\S/C(=N/c3ccc(Cl)cc3)N(C)C2=O)ccc1OCC(=O)O	1.15%
CC1=C(C(=O)OC2CCCCCCC2)C(c2ccccc2C)CC(=O)N1 (centres unmarked)	1.39%
CCN(CC)C(=O)CN(c1ccc(F)cc1)S(=O)(=O)c1ccc(C)cc1	-1.27%
CCN1CCN(c2ccc(NC(=O)C(C)C)cc2Cl)CC1	1.28%
CC1CCCCC1NC(=O)Cn1c2c(c(-c3ccccc3Cl)cc1=O)CCC2 (centres unmarked)	2.35%
Cl/C(=C\c1ccccc1)CN1CCN(c2ccc(Cl)cc2)CC1	-0.0494%
CC(C)Oc1ccccc1C1NC(C(=O)O)CS1 (centres unmarked)	-0.25%
CC(CN1CCN(Cc2ccccc2)CC1)OC(=O)c1cc2ccccc2o1 (centres unmarked)	-3.64%
COc1ccc2c(c1)CN(C)c1ccc(C)cc1CN2C	-3.85%

SMILES	% Inhibition @ 10 uM
CCSc1nc(O)c2c(n1)N=C1CC(C)(C)CC(O)=C1C2c1cccs1 (centres unmarked)	-4.78%
CC1=C(C(=O)OCc2ccc(C)cc2)C(c2ccccc2OC(C)C)NC(=O)N1 (centres unmarked)	25.8%
Nc1cc(C(=O)N2CCOCC2)cc(C(=O)N2CCOCC2)c1	-2.98%
Cc1ccc(N(CC(=O)Nc2ccc(Cl)cc2)S(C)(=O)=O)cc1Cl	-7.5%
N#C/C(=C\c1ccc(O)cc1)c1nc(-c2ccc(-c3ccccc3)cc2)cs1	4.12%
CS(=O)(=O)c1nc(S(=O)(=O)c2ccc(Cl)cc2)c(NCCc2c[nH]c3ccccc23)s1	-5.89%
CCOC(=O)c1cnc(-c2ccccc2)nc1N1CCc2[nH]ncc2C1	5.58%
O=C(Nc1ccccc1)Nc1ccc(S(=O)(=O)N2CCCCC2)cc1	14.5%
COc1cccc(C(=O)Nc2cc(C)on2)c1OC	-5.6%
CCCn1ncc(SC)c(O)c1=O	-5.9%
Cc1ccc(C2=N/C(=C\c3cccnc3)C(=O)O2)cc1	1.81%
Fc1ccccc1N1CCN(Cc2cccc(Cl)c2Cl)CC1	1.55%
CC(C)C(NC(=O)/C(=C/c1ccc2c(c1)OCO2)NC(=O)c1ccccc1)C(=O)O (centres unmarked)	-4.7%
CSC1=NP(=S)(SC)N2CCCC2=C1C#N (centres unmarked)	23.9%
COc1ccc(C2C3=C(O)CCCC3=NC(C)=C2C(=O)N2CCOCC2)cc1Br (centres unmarked)	2.51%
COc1ccc2c(CNCc3ccccc3Cl)c(C(=O)O)n(C)c2c1	-3.86%
COc1cc(/C=C2/C(=N)N3OC(C)=CC3=NC2=O)ccc1OCCCOc1ccccc1Cl	-3.23%
Cc1cccc(C(=O)NC2(C(F)(F)F)C(=O)N(Cc3ccccn3)C3=C2C(=O)CC(C)(C)C3)c1 (centres unmarked)	-1.72%
O=S(=O)(c1ccccc1)c1ccc(-n2ccnc2)cc1	-4.23%
O=C(c1cccs1)N1CCN(c2ccc([N+](=O)[O-])cc2)CC1	-3.65%
CC1(C)CC(=O)C2=C(C1)NC(=O)CC2c1cc(F)cc(F)c1 (centres unmarked)	3.67%
Cc1cccn2c(=O)c3cc(C#N)c(=O)n(CC(C)C)c3nc12	1.12%
O=Cc1c(C(=O)O)n(CCC(=O)O)c2ccccc12	3.24%
CC(Nc1nc2c(c(=O)n(C)c(=O)n2C)n1Cc1ccccc1Cl)c1ccccc1 (centres unmarked)	1.9%
O=C(c1ccc(Br)o1)N1CCCc2ccccc21	3%
Cc1ccc(CNC(=O)c2cc(-c3ccc(C)c(C)c3)[nH]n2)o1	7.04%

SMILES	% Inhibition @ 10 uM
CCCCN1C(=O)S/C(=C\c2c(NCCCO)nc3ccccn3c2=O)C1=O	6.97%
Cc1sc2nc(SCCCC(=O)NCCO)nc(N)c2c1C	-1.19%
COc1ccc(C(=O)NCc2nnc(SCC(=O)N3CCC(C)CC3)o2)cc1	6.35%
CCOc1ccccc1N1CCN(Cc2ccoc2)CC1	-4.35%
CN(C)c1ccc(/C=C/CN2CCN(c3ccc(Cl)cc3)CC2)cc1	-2.95%
CC1(C)CC(=O)C2=C(C1)OC(N)=C(C#N)C2c1ccc(OCc2ccccc2)cc1 (centres unmarked)	1.02%
CCc1ccc(C2NC(=O)c3ccccc3O2)cc1 (centres unmarked)	5.98%
CCN(CC)C(=O)c1ccc([N+](=O)[O-])o1	-3.52%
CC(C)(C)NS(=O)(=O)c1ccc(OCC(=O)N2CCc3ccccc3C2)cc1	-5.54%
COc1ccc(NC(=O)c2ccc(OC(C)C(=O)O)cc2)cc1 (centres unmarked)	2.76%
CC(C(=O)NCCc1ccc(Cl)cc1)n1c2ccccc2c2cnn(C)c(=O)c21 (centres unmarked)	-3.79%
O=C1C2C3CCC(O3)C2C(=O)N1c1ccccn1 (centres unmarked)	5.53%
CCC(C(=O)O/N=C(\N)c1cccnc1)c1ccccc1 (centres unmarked)	-2.92%
CN1CCN(Cc2ccc(Cl)cc2Cl)CC1	3.25%
O=C(COc1cccc2cccnc12)N1CCc2ccccc21	-2.29%
Cc1ccc(C(=O)N2CCN(C)CC2)cc1C	3.09%
O=C(c1nc(-c2cccc(F)c2)n2c1CCCCC2)N1CCN(c2ncccn2)CC1	6.2%
O=C(CN1C(=O)c2ccccc2C1=O)N1CCN(C/C=C/c2ccccc2)CC1	3.27%
O=C(O)CNC(=O)NC12CC3CC(CC(C3)C1)C2	1.12%
Cc1s/c(=N\C(=O)c2cccnc2)n(C)c1-c1ccccc1	-3.25%
O=C1CCCN1CCCn1cnc2c3cc(Cl)ccc3nc-2c1O	-13.4%
CCN1C/C(=C\c2ccc(OC)cc2OC)C(=O)/C(=C/c2ccc(OC)cc2OC)C1	-3.79%
OCCc1c(-c2ccccc2)n(Cc2ccccc2)c2ccccc12	-1.76%
